Experimental findings from the BET-seq Pho4 binding data (Le et al. 2018) are described below.

Some of the results follow. The energies were worked out here from pooled read counts, against the library average; single values are noisy.

This experiment addresses T1, Pho4 (S. cerevisiae) (UniProt P07270).
T1 sequence: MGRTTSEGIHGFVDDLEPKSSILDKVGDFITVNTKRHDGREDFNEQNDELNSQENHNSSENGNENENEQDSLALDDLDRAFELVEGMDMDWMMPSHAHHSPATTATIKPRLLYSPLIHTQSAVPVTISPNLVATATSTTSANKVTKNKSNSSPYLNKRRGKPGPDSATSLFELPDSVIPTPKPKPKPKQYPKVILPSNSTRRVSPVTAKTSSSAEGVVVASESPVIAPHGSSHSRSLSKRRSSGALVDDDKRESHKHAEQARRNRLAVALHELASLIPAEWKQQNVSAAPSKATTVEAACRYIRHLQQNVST
Briefly: relative binding free energy (BET-seq); higher = weaker binding. Particulars: reference: library average.
In the case of ATGGGCACGTGTAGGT, the “relative binding free energy” value is -0.17 kcal/mol.
The same measure for TGCATCACGTGGCTGG: 0.05 kcal/mol; for TCGGACACGTGATTTT: 0.17 kcal/mol.
The same measure for TCGTGCACGTGTGCTT: -0.1 kcal/mol; for ATAGTCACGTGCTGGG: 0.01 kcal/mol.
The same measure for GGGGTCACGTGATTGA: 0.25 kcal/mol; for TCAATCACGTGGGTTA: 0.05 kcal/mol.
In the case of TAATTCACGTGTCGGG, the “relative binding free energy” value was determined as 0.32 kcal/mol.
The same measure for TAACGCACGTGAGGTT: 0.22 kcal/mol; for GGCTGCACGTGTTGGC: -0.03 kcal/mol.
TGGGGCACGTGGCCAT: the “relative binding free energy” value is -0.14 kcal/mol.
With ATATGCACGTGTGCTT, the “relative binding free energy” value came out at 0.07 kcal/mol.
The result for CGATACACGTGGTATG reads 0.01 kcal/mol.
The result for TGTGCCACGTGGTAAG reads 0.01 kcal/mol.
ATGGGCACGTGACATG: the “relative binding free energy” value was -0.03 kcal/mol.
For the sequence TTTGTCACGTGCGCGA, the “relative binding free energy” value was -0.12 kcal/mol.
The result for AATAGCACGTGTGGGA reads -0.03 kcal/mol; that for TTCGTCACGTGATTGT, 0.2 kcal/mol; that for TAGGACACGTGTATGG, 0.14 kcal/mol.
With TATAACACGTGAATGG, the “relative binding free energy” value was 0.13 kcal/mol.
The result for GTAGTCACGTGATATT reads 0.18 kcal/mol.
The same measure for GTGGTCACGTGCAATT: 0.09 kcal/mol; for TGTGTCACGTGGGCTA: -0.01 kcal/mol.
On to CGTATCACGTGGTATG, for which the “relative binding free energy” value was found to be 0.13 kcal/mol.
TGGCTCACGTGAAAGG: the “relative binding free energy” value was 0.45 kcal/mol.
TGTAACACGTGGGTGA: the “relative binding free energy” value is -0.11 kcal/mol.
The same measure for AGATGCACGTGGTGCT: -0.16 kcal/mol; for TTGATCACGTGTTGAC: 0.12 kcal/mol; for GGCATCACGTGTAGAG: 0.22 kcal/mol.
The result for GGGGACACGTGCGTCG reads 0.04 kcal/mol; that for CAAATCACGTGGTTTT, 0.19 kcal/mol.
The same measure for CCGTTCACGTGTGTGT: 0.14 kcal/mol; for GATTCCACGTGTGTTG: 0.05 kcal/mol.
With ATTTACACGTGGGGAT, the “relative binding free energy” value is 0.11 kcal/mol.
As to CGGGGCACGTGCTAGG, the “relative binding free energy” value was -0.2 kcal/mol.
The result for TTGTTCACGTGTGTGC reads 0.35 kcal/mol; that for TTTGGCACGTGTTATC, 0.01 kcal/mol; that for ATGAACACGTGGTGTT, -0.04 kcal/mol.
The result for CTGGTCACGTGATTGA reads 0.21 kcal/mol; that for GGTGTCACGTGGAGCA, 0.04 kcal/mol; that for CGGGTCACGTGGTCGG, 0.09 kcal/mol.
The same measure for TTGGACACGTGGAATT: 0.26 kcal/mol; for GTTGGCACGTGATTGT: 0.05 kcal/mol; for GACGGCACGTGGTCGG: -0.13 kcal/mol.
On to GCTGGCACGTGGGCGG, for which the “relative binding free energy” value was -0.2 kcal/mol.
As to ACTGGCACGTGCGGGT, the “relative binding free energy” value was -0.18 kcal/mol.
In the case of GTCTTCACGTGCGGGG, the “relative binding free energy” value is 0.29 kcal/mol.
The same measure for GTGGTCACGTGCTAAT: 0.14 kcal/mol; for AGATTCACGTGGGATA: 0.33 kcal/mol.
Consider GAGTTCACGTGAAGGA, for which the “relative binding free energy” value is 0.51 kcal/mol.
Take GGCGGCACGTGAAGGA: the “relative binding free energy” value stood at 0.15 kcal/mol.
On to GTGTGCACGTGATCTG, for which the “relative binding free energy” value was 0 kcal/mol.
The same measure for GGGACCACGTGGAGTG: -0.05 kcal/mol.
The result for TTGTACACGTGCGATG reads 0.06 kcal/mol; that for TGGGGCACGTGCGTTA, -0.31 kcal/mol; that for ATGTTCACGTGGTGCG, 0.19 kcal/mol.
The same measure for GGTTTCACGTGATGAC: 0.5 kcal/mol; for TGATGCACGTGGGGAA: -0.1 kcal/mol; for CGTGACACGTGCTGGG: -0.09 kcal/mol.
Turning to ATGTTCACGTGCGATA, the “relative binding free energy” value worked out at 0.27 kcal/mol.
The result for AGAGGCACGTGAGAGG reads -0.01 kcal/mol; that for AGGTACACGTGGTGCT, 0 kcal/mol.
As for AGATCCACGTGTGAGG, the “relative binding free energy” value worked out at 0.29 kcal/mol.
The same measure for CTGCTCACGTGGGGGG: 0.03 kcal/mol.
The result for TAATTCACGTGTAGGC reads 0.24 kcal/mol; that for AAGTTCACGTGAGGGA, 0.42 kcal/mol.
For TGTCGCACGTGATTTG, the “relative binding free energy” value is 0.19 kcal/mol.
The result for GAGTACACGTGGATTA reads 0.27 kcal/mol; that for GAATGCACGTGACGGT, 0.28 kcal/mol.
The same measure for TAAGGCACGTGAAGAG: 0.12 kcal/mol.
The result for CTGGGCACGTGGTGGA reads -0.22 kcal/mol; that for GCGTGCACGTGTGCTT, -0.03 kcal/mol; that for CTTTTCACGTGTTTGG, 0.29 kcal/mol.
Consider TCTGGCACGTGCGTTT, for which the “relative binding free energy” value is -0.19 kcal/mol.
The same measure for AAGTGCACGTGTGACG: -0.04 kcal/mol; for TATGACACGTGTGTCG: 0.02 kcal/mol.
The result for TGTGTCACGTGAAAAT reads 0.25 kcal/mol.
In the case of TAAGCCACGTGGAGGT, the “relative binding free energy” value is -0.06 kcal/mol.
The same measure for GAAATCACGTGGTGTG: 0.08 kcal/mol; for ATGGTCACGTGGTAGA: -0.02 kcal/mol.
In the case of TAACGCACGTGGGTGA, the “relative binding free energy” value is -0.18 kcal/mol.
The result for AGTCGCACGTGGAGTA reads -0.08 kcal/mol.
The same measure for TTAGACACGTGTTTTA: 0.11 kcal/mol; for GTTTTCACGTGGTTCC: 0.3 kcal/mol; for AATGGCACGTGAGATA: 0.23 kcal/mol.
The same measure for TTTTGCACGTGATGCC: 0.17 kcal/mol; for GTTAGCACGTGTTGCG: 0.01 kcal/mol; for CTGGTCACGTGTCAAG: 0.34 kcal/mol.
On to GGTTTCACGTGCTGCG, for which the “relative binding free energy” value was 0.31 kcal/mol.
The result for TTTAGCACGTGTGGGC reads -0.03 kcal/mol; that for TCGGGCACGTGTTGAG, -0.23 kcal/mol.
The same measure for AGGTGCACGTGTAAAG: 0.02 kcal/mol; for AGGGTCACGTGTCAGT: -0.03 kcal/mol; for GCGGGCACGTGGTGTT: -0.07 kcal/mol.
The same measure for GGGGTCACGTGCCGGA: 0.02 kcal/mol; for TGGCGCACGTGAAATT: 0.33 kcal/mol; for TGGGGCACGTGCCGGG: -0.18 kcal/mol.
Regarding TCTCGCACGTGATTTG, the “relative binding free energy” value came to 0.14 kcal/mol.
Consider CTGTGCACGTGGTATT, for which the “relative binding free energy” value is -0.2 kcal/mol.
GTGTTCACGTGTTGTA: the “relative binding free energy” value came out at 0.17 kcal/mol.
The result for GCTTTCACGTGGCTTT reads 0.34 kcal/mol; that for GGGTCCACGTGTGTTC, 0.17 kcal/mol.
The result for GTGGACACGTGGTATC reads 0.05 kcal/mol.
The same measure for ATGGTCACGTGTGTGT: 0.12 kcal/mol; for AGAGTCACGTGAGTTA: 0.31 kcal/mol; for AAGCGCACGTGATTGT: 0.16 kcal/mol.
For TGGGTCACGTGTCTCT, the “relative binding free energy” value was 0.28 kcal/mol.
The same measure for TTGAGCACGTGCGTGC: -0.23 kcal/mol; for AGGGTCACGTGGAAAT: 0.18 kcal/mol.
The same measure for ATCATCACGTGATGTT: 0.11 kcal/mol; for ATTAACACGTGTGTAA: -0.16 kcal/mol.
Regarding TCGTACACGTGAGTTT, the “relative binding free energy” value stood at 0.28 kcal/mol.
The result for TTCTGCACGTGAGGCG reads 0.15 kcal/mol.
The result for GAGGTCACGTGAGAAG reads 0.36 kcal/mol; that for TGACTCACGTGTTGGA, 0.23 kcal/mol.
The same measure for AGCTTCACGTGGTTAA: 0.24 kcal/mol; for GACGGCACGTGGTTAG: -0.05 kcal/mol; for AAAGACACGTGGTATT: -0.02 kcal/mol.
For TGTTGCACGTGTAGTT, the “relative binding free energy” value was 0.09 kcal/mol.
The result for GGTAACACGTGGCATT reads 0.05 kcal/mol; that for GATAGCACGTGGTTCA, -0.08 kcal/mol; that for CTTGACACGTGTGGTA, 0.1 kcal/mol.
The same measure for ATCTTCACGTGTGGCG: 0.37 kcal/mol; for TGGTGCACGTGTATAC: 0.01 kcal/mol; for CTGGGCACGTGACGGG: -0.13 kcal/mol.
The same measure for GCTTTCACGTGTTAAT: 0.23 kcal/mol; for TTTCTCACGTGATTGA: 0.24 kcal/mol; for TTGTACACGTGGGTCT: -0.02 kcal/mol.
GGTGCCACGTGTAATG: the “relative binding free energy” value is 0.06 kcal/mol.
GGGTGCACGTGAGCTG: the “relative binding free energy” value was 0.13 kcal/mol.
The same measure for TGCTGCACGTGGAGGT: -0.14 kcal/mol; for ATGCGCACGTGCGGGT: -0.13 kcal/mol.
Turning to GGTTTCACGTGAATGT, the “relative binding free energy” value stood at 0.44 kcal/mol.
The same measure for GGAAGCACGTGGAGTA: 0.02 kcal/mol.
The same measure for TTGATCACGTGGTTGG: 0.15 kcal/mol.
The result for CTTATCACGTGGTCGG reads 0.03 kcal/mol; that for CGTGTCACGTGTGCCG, 0.19 kcal/mol; that for TTCGGCACGTGATTGA, -0.04 kcal/mol.
On to GTGTACACGTGGTGAA, for which the “relative binding free energy” value was determined as 0.09 kcal/mol.
The result for TGTGTCACGTGATGCA reads 0.13 kcal/mol.
The result for AAGGACACGTGGGGGT reads -0.09 kcal/mol; that for TTGTGCACGTGATACG, 0.12 kcal/mol; that for GGACGCACGTGGAGGA, -0.11 kcal/mol.
The same measure for AAGGCCACGTGGCGTG: -0.2 kcal/mol.
On to TTCTGCACGTGGGTAA, for which the “relative binding free energy” value is -0.2 kcal/mol.
The result for AGGTTCACGTGCATGG reads 0.27 kcal/mol.
